According to PMC9911399, “Two distinct binding modes provide the RNA-binding protein RbFox with extraordinary sequence specificity”:
Residue numbers refer to the chain shown, from its start. This is one part of the list.

B1: CUGAAUG (DNA:RNA)
RNA: GGGAGACCGGAAUUCAGAUUGUCCCUGAAUGUUAAAUCCCGUCGUAGCCACCA
DNA 1: CAATCTGAATTCCGGTCTCCC
DNA 2: TGGTGGCTACGACGGGATT
B2: AGAAACA (DNA:RNA)
RNA: B1 RNA with C25A, U26G, G27A, U30C, G31A
DNA 1: CAATCTGAATTCCGGTCTCCC
DNA 2: TGGTGGCTACGACGGGATT
B3: CACUAAC (DNA:RNA)
RNA: B1 RNA with U26A, G27C, A28U, U30A, G31C
DNA 1: CAATCTGAATTCCGGTCTCCC
DNA 2: TGGTGGCTACGACGGGATT
B4: UCGUGGU (DNA:RNA)
RNA: B1 RNA with C25U, U26C, A28U, A29G, U30G, G31U
DNA 1: CAATCTGAATTCCGGTCTCCC
DNA 2: TGGTGGCTACGACGGGATT
B5: AUCUGGC (DNA:RNA)
RNA: B1 RNA with C25A, G27C, A28U, A29G, U30G, G31C
DNA 1: CAATCTGAATTCCGGTCTCCC
DNA 2: TGGTGGCTACGACGGGATT
B6: UUCUCAG (DNA:RNA)
RNA: B1 RNA with C25U, G27C, A28U, A29C, U30A
DNA 1: CAATCTGAATTCCGGTCTCCC
DNA 2: TGGTGGCTACGACGGGATT
B7: AGUAGAA (DNA:RNA)
RNA: B1 RNA with C25A, U26G, G27U, A29G, U30A, G31A
DNA 1: CAATCTGAATTCCGGTCTCCC
DNA 2: TGGTGGCTACGACGGGATT
B8: GCGUCCG (DNA:RNA)
RNA: B1 RNA with C25G, U26C, A28U, A29C, U30C
DNA 1: CAATCTGAATTCCGGTCTCCC
DNA 2: TGGTGGCTACGACGGGATT
B9: GGACGUU (DNA:RNA)
RNA: B1 RNA with C25G, U26G, G27A, A28C, A29G, G31U
DNA 1: CAATCTGAATTCCGGTCTCCC
DNA 2: TGGTGGCTACGACGGGATT
B10: GCGUGUG (DNA:RNA)
RNA: B1 RNA with C25G, U26C, A28U, A29G
DNA 1: CAATCTGAATTCCGGTCTCCC
DNA 2: TGGTGGCTACGACGGGATT
B11: CUGUACA (DNA:RNA)
RNA: B1 RNA with A28U, U30C, G31A
DNA 1: CAATCTGAATTCCGGTCTCCC
DNA 2: TGGTGGCTACGACGGGATT
B12: UACACUC (DNA:RNA)
RNA: B1 RNA with C25U, U26A, G27C, A29C, G31C
DNA 1: CAATCTGAATTCCGGTCTCCC
DNA 2: TGGTGGCTACGACGGGATT
B13: CACCUCU (DNA:RNA)
RNA: B1 RNA with U26A, G27C, A28C, A29U, U30C, G31U
DNA 1: CAATCTGAATTCCGGTCTCCC
DNA 2: TGGTGGCTACGACGGGATT
B14: GAAGGUA (DNA:RNA)
RNA: B1 RNA with C25G, U26A, G27A, A28G, A29G, G31A
DNA 1: CAATCTGAATTCCGGTCTCCC
DNA 2: TGGTGGCTACGACGGGATT
B15: CCAUUGA (DNA:RNA)
RNA: B1 RNA with U26C, G27A, A28U, A29U, U30G, G31A
DNA 1: CAATCTGAATTCCGGTCTCCC
DNA 2: TGGTGGCTACGACGGGATT
B16: AAGUAAA (DNA:RNA)
RNA: B1 RNA with C25A, U26A, A28U, U30A, G31A
DNA 1: CAATCTGAATTCCGGTCTCCC
DNA 2: TGGTGGCTACGACGGGATT
B17: UAUGUUU (DNA:RNA)
RNA: B1 RNA with C25U, U26A, G27U, A28G, A29U, G31U
DNA 1: CAATCTGAATTCCGGTCTCCC
DNA 2: TGGTGGCTACGACGGGATT
B18: UUAGGAG (DNA:RNA)
RNA: B1 RNA with C25U, G27A, A28G, A29G, U30A
DNA 1: CAATCTGAATTCCGGTCTCCC
DNA 2: TGGTGGCTACGACGGGATT
B19: UUCAAUU (DNA:RNA)
RNA: B1 RNA with C25U, G27C, G31U
DNA 1: CAATCTGAATTCCGGTCTCCC
DNA 2: TGGTGGCTACGACGGGATT
B20: UAGCUUA (DNA:RNA)
RNA: B1 RNA with C25U, U26A, A28C, A29U, G31A
DNA 1: CAATCTGAATTCCGGTCTCCC
DNA 2: TGGTGGCTACGACGGGATT

target: T1, RBFOX1 RRM (Homo sapiens, UniProt Q9NWB1 109-208); experiment: EMSA; HiTS-Eq, 1 nM pool, 10 min; buffer printed only for the single-RNA assays: 10 mM Tris pH 7.5, 150 mM NaCl, 3.4 mM EDTA, 0.001% NP-40, 30 C; conditions: tags: His6 N-terminal (pET28a); label: 5' 32P
T1 sequence: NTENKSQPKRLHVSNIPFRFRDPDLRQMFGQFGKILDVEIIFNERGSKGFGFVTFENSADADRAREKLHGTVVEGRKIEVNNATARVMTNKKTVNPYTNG
How it was run: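 Purified RbFox RRM, wild type or mutant, was incubated for 10 min in 50 µL with 1 nM of a 5′-radiolabelled RNA pool carrying 7 randomized nucleotides, whose flanks were annealed to DNA oligonucleotides, over a series of increasing protein concentrations. Unbound RNA was resolved on 8% native PAGE, cut out, reverse-transcribed, barcoded by PCR and sequenced on an Illumina HiSeq 2500. Relative association constants were derived from changes in read counts for each RNA species versus the control reaction and normalised to the cognate motif.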

Binder | binding signal
B1 | 0.0348 KA relative to UGCAUGU
B2 | 0.00355 KA relative to UGCAUGU
B3 | 0.000584 KA relative to UGCAUGU
B4 | 0.0169 KA relative to UGCAUGU
B5 | 0.0101 KA relative to UGCAUGU
B6 | 0.0126 KA relative to UGCAUGU
B7 | 0.00977 KA relative to UGCAUGU
B8 | 0.0136 KA relative to UGCAUGU
B9 | 0.0176 KA relative to UGCAUGU
B10 | 0.0222 KA relative to UGCAUGU
B11 | 0.00497 KA relative to UGCAUGU
B12 | 0.00209 KA relative to UGCAUGU
B13 | 0.00165 KA relative to UGCAUGU
B14 | 0.011 KA relative to UGCAUGU
B15 | 0.00494 KA relative to UGCAUGU
B16 | 0.00115 KA relative to UGCAUGU
B17 | 0.0156 KA relative to UGCAUGU
B18 | 0.00364 KA relative to UGCAUGU
B19 | 0.00386 KA relative to UGCAUGU
B20 | 0.00914 KA relative to UGCAUGU
